Assay results: the supplement of paper PMC12217912
The other results are listed elsewhere or left out. Sequences were assembled here from the parent chain. Values near 0.05 are background.

B1: TEV protease; numbered along this chain (parent)
chain: MGESLFKGPRDYNPISSSICHLTNESDGHTTSLYGIGFGPFIITNKHLFRRNNGTLVVQSLHGVFKVKDTTTLQQHLVDGRDMIIIRMPKDFPPFPQKLKFREPQREERICLVTTNFQTKSMSSMVSDTSCTFPSGDGIFWKHWIQTKDGQCGSPLVSTRDGFIVGIHSASNFTNTNNYFTSVPKNFMELLTNQEAQQWVSGWRLNADSVLWGGHKVFMVKPEEPFQPVKEATQL

Variants of: B1
Test: raw area under fraction-flipped curve 0-4 h after induction (AUC4h, not background-subtracted), DNA-recorder readout of cleavage of the substrate (dimensionless); higher = more cleavage of the substrate by the protease variant
Settings: temperature: 34 °C; time window: 0-4 h after rhamnose induction
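Note: Bxb1 expression induced with 0.2% (w/v) L-rhamnose at OD600 near 0.5, cultures sampled hourly, flipped fraction per protease–substrate barcode pair counted by paired-end Illumina sequencing.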

Variant	area with substrate ENLNFQS	area with substrate ENLPFQS	area with substrate ENLQFQS	area with substrate ENLRFQS	area with substrate ENLSFQS	area with substrate ENLTFQS	area with substrate ENLWFQS	area with substrate ENLKFQS	area with substrate ENLMFQS	area with substrate ENLIFQS
MGESLFKGPRDYNPISSSICHLTNESDGHTTSLYGIGFGPFIITNKHLFRRNNGTLVVQSLHGVFKVKDTTTLQQHLVDGRDMIIIRMPKDFPPFPQKLKFREPQREERICLVTTNFQTKSMSSMVSDTSCKFPSGDGIFWKHWIQTKDGQCGSPLVSTRDGFIVGIHSASNFTNTNNYFTSVPKNFMELLTNQEAQQWVSGWRLNADSVLWGGHKVFMVKPEEPFQPVKEATQL [T132K]	0.0684	–	–	–	–	–	–	–	–	–
MGESLFKGPRDYNPISSSICHLTNESDGHTTSLYGIGFGPFIITNKHLFRRNNGTLVVQSLHGVFKVKDTTTLQQHLVDGRDMIIIRMPKDFPPFPQKLKFREPQREERICLVTTNFQTKSMSSMVSDTSCTFPSGDGIFWKHWIQTKDGQCGSPLVSTRDGFIVGIHSASNFTNTNNYFTSVPKNFMELLTNQEAQQWVSGWRLNADSVLWGGHKVFMVKPEEPFAPVKEATQL [Q227A]	–	0.0633	0.0688	–	–	–	–	–	–	–
MGESLFKGPRDYNPISSSICHLTNESDGHTTSLYGIGFGPFIITNKHLFRRNNGTLVVQSLHGVFKVKDTTTLQQHLVDGRDMIIIRMPKDFPPFPQKWKFREPQREERICLVTTNFQTKSMSSMVSDTSCTFPSGDGIFWKHWIQTKDGQCGSPLVSTRDGFIVGIHSASNFTNTNNYFTSVPKNFMELLTNQEAQQWVSGWRLNADSVLWGGHKVFMVKPEEPFQPVKEATQL [L99W]	–	0.0657	–	0.0566	0.0588	0.0666	0.0604	–	–	–
MGESLFKGPRDYNPISSSICHLTNESDGHTTSLYGIGFGPFIITNKHLFRRNNGTLVVQSLHGVFKVKDTTTLQQHLVDGRDMIIIRMPKDFPPFPQKLKFREPQREERICLVTTNFQTKSMSSMVSDTSCTFPSGDGIFWKHWIQTKDGQCGSPLVSTRDGFIVGIHSASWFTNTNNYFTSVPKNFMELLTNQEAQQWVSGWRLNADSVLWGGHKVFMVKPEEPFQPVKEATQL [N172W]	–	–	–	–	–	–	–	0.0508	0.0705	–
MGESLFKGPRDYNPISSSICHLTNESDGHTTSLYGIGFGPFIITNKHLFRRNLGTLVVQSLHGVFKVKDTTTLQQHLVDGRDMIIIRMPKDFPPFPQKLKFREPQREERICLVTTNFQTKSMSSMVSDTSCTFPSGDGIFWKHWIQTKDGQCGSPLVSTRDGFIVGIHSASNFTNTNNYFTSVPKNFMELLTNQEAQQWVSGWRLNADSVLWGGHKVFMVKPEEPFQPVKEATQL [N53L]	–	–	0.0523	–	0.0357	–	0.0656	0.0646	–	0.0717
MGESLFKGPRDYNPISSSICHLTNESDGHTTSLYGIGFGPFIITNKHLFRRNNGTLVVQSLHGVFKVKDTTTLQQHLVDGRDMIIIRMPKDFPPFPQKLKFREPQREERICLVTTNFQTKSMSSMVSDTSCTFPSGDGIFWKHWIQTKDGQCGSPLVSTRDGFIVGIHYASNFTNTNNYFTSVPKNFMELLTNQEAQQWVSGWRLNADSVLWGGHKVFMVKPEEPFQPVKEATQL [S169Y]	–	–	–	–	–	–	–	0.0847	–	–
MGESLFKGPRDYNPISSSICHLTNESDGHTTSLYGIGEGPFIITNKHLFRRNNGTLVVQSLHGVFKVKDTTTLQQHLVDGRDMIIIRMPKDFPPFPQKLKFREPQREERICLVTTNFQTKSMSSMVSDTSCTFPSGDGIFWKHWIQTKDGQCGSPLVSTRDGFIVGIHSASNFTNTNNYFTSVPKNFMELLTNQEAQQWVSGWRLNADSVLWGGHKVFMVKPEEPFQPVKEATQL [F38E]	–	–	0.0536	–	–	–	–	–	–	–
MGESLFKGPRDYNPISSSICHLTNESDGHTTSLYGIGFGPFIITNKHLFRRNNGTLVVQSLHGVFKVKDTTTLQQHLVDGRDMIIIRMPADFPPFPQKLKFREPQREERICLVTTNFQTKSMSSMVSDTSCTFPSGDGIFWKHWIQTKDGQCGSPLVSTRDGFIVGIHSASNFTNTNNYFTSVPKNFMELLTNQEAQQWVSGWRLNADSVLWGGHKVFMVKPEEPFQPVKEATQL [K90A]	0.0792	–	–	–	–	–	–	–	–	–
MGESLFKGPRDYNPISSSICHLTNESDGHTTSLYGIGFGPFIITNKHLFRRNNGTLVVQSLHGVFKVKDTTTLQQHLVDGRDMIIIRMPKDFPPFPQKLKFREPQREERICLVTTNFQTKSMSSMVSDTSCTFPSGDGIFWKHWIQTKDGQCGSPLVSTRDGFIVGIHSISNFTNTNNYFTSVPKNFMELLTNQEAQQWVSGWRLNADSVLWGGHKVFMVKPEEPFQPVKEATQL [A170I]	–	–	–	–	0.0277	–	–	–	–	–
MGESLFKGPRDYNPISSSICHLTNESDGHTTSLYGIGFGPFIITNKHLFRRNNGTLVVQSLHGVFKVKDTTTLQQHLVDGRDMIIIRMPKDFPPFPQKLKFREPQREERICLVTTNFQTKSMSSMVSDTSCTFPSGDGIFWKHWIQTKDGQCGSPLVSTRDGFIVGIHSFSNFTNTNNYFTSVPKNFMELLTNQEAQQWVSGWRLNADSVLWGGHKVFMVKPEEPFQPVKEATQL [A170F]	0.0731	0.0591	–	–	0.0561	–	–	–	–	–
MGESLFKGPRDYNPISSSICHLTNESDGHTTSLYGIGFGPFIITNKHLFRRNNGTLVVQSLHGVFKVKDTTTLQQHLVDGRDMIIIRMPKDFPPFPQKLKFREPQREERICLVTTNFQTKSMSSMVSDTSCTFPSGDGIFWKHWIQTKDGQCGSPLVSTRDGFIVGIHSQSNFTNTNNYFTSVPKNFMELLTNQEAQQWVSGWRLNADSVLWGGHKVFMVKPEEPFQPVKEATQL [A170Q]	0.0929	–	–	–	–	–	–	–	–	–
MGESLFKGPRDYNPISSSICHLTNESDGHTTSLYGIGFGPFIITNKHLFRRNNGTLVVQSLHGVFKVKDTTTLQQHLVDGRDMIIIRMPKDFPPFPQKLKFREPQREERICLVTTNFQTKSMSSMVSDTSCTFPSGDGIFWKHWIQTKDGQCGSPLVSTRDGFIVGIHSAINFTNTNNYFTSVPKNFMELLTNQEAQQWVSGWRLNADSVLWGGHKVFMVKPEEPFQPVKEATQL [S171I]	–	0.0191	–	–	–	–	–	0.0592	–	–

Same assay, conditions: temperature: 34 °C; time window: 0-4 h after rhamnose induction

Variant	area with substrate ENLLFQS	area with substrate ENLVFQS
MGESLFKGPRDYNPISSSICHLTNESDGHTTSLYGIGFGPFIITNKHLFRRNLGTLVVQSLHGVFKVKDTTTLQQHLVDGRDMIIIRMPKDFPPFPQKLKFREPQREERICLVTTNFQTKSMSSMVSDTSCTFPSGDGIFWKHWIQTKDGQCGSPLVSTRDGFIVGIHSASNFTNTNNYFTSVPKNFMELLTNQEAQQWVSGWRLNADSVLWGGHKVFMVKPEEPFQPVKEATQL [N53L]	0.0421	–
MGESLFKGPRDYNPISSSICHLTNESDGHTTSLYGIGFGPFIITNKHLFRRNNGTLVVQSLHGVFKVKDTTTLQQHLVDGRDMIIIRMPKDFPPFPQKLKFREPQREERICLVTTNFQTKSMSSMVSDTSCTFPSGDGIFWKHWIQTKDGQCGSPLVSTRDGFIVGIHYASNFTNTNNYFTSVPKNFMELLTNQEAQQWVSGWRLNADSVLWGGHKVFMVKPEEPFQPVKEATQL [S169Y]	0.0619	0.0611
